# Source: PubChem BioAssay AID540317 (National Center for Advancing Translational Sciences (NCATS), 2011)
# In all, about 390,000 compounds went through this assay and about 2,200 (0.56%) were called active. The inconclusive results got no clear call from the source; some entries with a clear call stand among them for comparison. Calls follow the shape of the dose curve; as a rule, active = well fitted inhibition curve with a large enough effect; inconclusive = small, poorly fitted or top-dose-only effect; inactive = no such curve, though single readings can be large or run the other way. Where the call is inconclusive, the potency comes from a doubtful curve fit.
# Biological target: Chromobox protein homolog 1 (Homo sapiens) (UniProt P83916)
# Assay: HTS for Inhibitors of HP1-beta Chromodomain Interactions with Methylated Histone Tails; also: nearly all actives have a fitted effect of over 70% in size
# Settings: AlphaScreen HP1-beta / biotin-H3K9me3 peptide binding; series mostly up to 114 µM; activity change, negative = inhibition: at the top concentration
# Method in brief: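 HP1-beta protein (50 nM final) preincubated 30 min at room temperature with biotinylated H3(1-18)K9me3 peptide (50 nM) in PBS pH 7.4, 0.01% Tween-20, then compound added for 30 min. AlphaScreen streptavidin donor/nickel chelate acceptor beads (10 ug/mL final), 30 min dark, luminescence read.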
# Potency is read from the fitted curve at half-maximal effect; tags tell the direction and shape of the fitted curve.
# UniProt P83916, sequence (P83916 whole entry, looked up): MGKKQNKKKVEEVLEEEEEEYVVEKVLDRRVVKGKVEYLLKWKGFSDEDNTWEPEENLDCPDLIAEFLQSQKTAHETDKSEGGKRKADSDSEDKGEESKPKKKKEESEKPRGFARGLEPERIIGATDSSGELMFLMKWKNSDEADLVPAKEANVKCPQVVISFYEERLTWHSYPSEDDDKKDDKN
SMILES,"activity change, negative = inhibition",Potency
COc1ccc(/C=C(/C(=O)c2ccc(Cl)cc2Cl)n2cncn2)cc1,inactive: 2.11%,
Cc1ccc(C)n1Cc1ccc(C(=O)O)cc1,,"inconclusive: 1 µM [inhibitor, full curve, poor fit]"
Cn1c(=O)c2c(nc(N3CCCCCC3)n2CC(O)COc2ccccc2)n(C)c1=O (centres undefined),,"inconclusive: 8.91 µM [inhibitor, single point]"
COc1ccc(CN2CCN(Cc3ccco3)CC2)cc1OC,,"inconclusive: 25.1 µM [inhibitor, single point]"
C=CCNC(=O)CN1CCN(C(c2ccccc2)c2ccccc2)CC1,,"inconclusive: 20 µM [inhibitor, full curve]"
COC(=O)C(=C/C(C)=C/c1cccs1)C(=O)OC,,"inconclusive: 44.7 µM [inhibitor, partial curve]"
O=C(NNC(=S)Nc1cccc(C(F)(F)F)c1)c1cccc(Cl)c1,,"inconclusive: 35.5 µM [inhibitor, partial curve]"
Cc1nsc2c1ccc1ccccc12,inactive: 48.6%,
O=[N+]([O-])c1cc(CN2CCCC2)c2cccnc2c1O,,"inconclusive: 35.5 µM [inhibitor, full curve]"
COc1ccccc1CNC(=O)CCC1N=C2c3ccccc3N=C(SCc3cccc(Cl)c3)N2C1=O (centres undefined),inactive: 28.8%,
COc1ccccc1N1CCN(CC(=O)Nc2nccs2)CC1,inactive: 20.9%,
O=C(Nc1ccccc1C(=O)O)c1cccc(NC(=O)c2ccc(Br)o2)c1,inactive: 11.1%,
O=C(c1ccccc1)N1N=C(c2ccco2)CC1c1cccs1 (centres undefined),,"inconclusive: 25.1 µM [inhibitor, full curve, poor fit]"
CCOc1ccc(-c2nnc(-c3cccs3)o2)cc1OCC,inactive: -5.85%,
OC(CNC1CCCc2ccccc21)COc1ccc2ccccc2c1 (centres undefined),,"inconclusive: 17.8 µM [inhibitor, full curve]"
CN(C)c1cccc(C(=O)NCCCn2ccc3ccccc32)c1,,"inconclusive: 50.1 µM [inhibitor, partial curve]"
COc1ccccc1OCCC(=O)Nc1ccc2c(c1)OCO2,inactive: 22.8%,
FC(F)(F)c1ccc2c(c1)NCC1CCCN21 (centres undefined),,"inconclusive: 39.8 µM [inhibitor, partial curve]"
O=C1c2ccccc2C(=O)c2c1cccc2N1CCOCC1,,active: 39.8 µM
CCn1c(CNC(=O)c2ccc(OC)cc2)nnc1SCC(=O)c1ccccc1,,"inconclusive: 89.1 µM [inhibitor, single point]"
COC(=O)c1ccc(OCC2c3cc(OC)c(OC)cc3CCN2C(=O)COc2ccc(Cl)cc2)cc1 (centres undefined),inactive: -12.1%,
O=[N+]([O-])c1cccc(P(=O)(O)c2cccc([N+](=O)[O-])c2)c1,,"inconclusive: 89.1 µM [inhibitor, partial curve, poor fit]"
Cc1cccc(N2CCN(S(=O)(=O)c3ccc4c(c3)CCN4C(=O)CCC(=O)O)CC2C)c1 (centres undefined),,"inconclusive: 89.1 µM [inhibitor, single point]"
CSc1ccc(CN2CCC(N3CC(C)OC(C)C3)CC2)cc1 (centres undefined),,"inconclusive: 15.8 µM [inhibitor, full curve, poor fit]"
CCN1C(=O)CC(N2CCC(C(=O)N3CCCCCC3)CC2)C1=O (centres undefined),inactive: 27.5%,

SMILES,"activity change, negative = inhibition",Potency
Clc1ccc(/C(Cc2nc3ccccc3[nH]2)=N\Nc2ccccc2)cc1,inactive: -11.3%,
CCS(=O)(=O)N1CCN(C(C)CCc2ccccc2)CC1 (centres undefined),,"inconclusive: 50.1 µM [inhibitor, partial curve]"
CCNC(=S)NNC(=O)CSc1nc2ccccc2[nH]1,inactive: 8.13%,
COc1nc(OCCNC(C)=O)nc(N(C)C)n1,inactive: 13.4%,
O=C(CNCC1CCCO1)N1CCCc2ccccc21 (centres undefined),,"inconclusive: 22.4 µM [inhibitor, partial curve, poor fit]"
Cc1ccccc1C(=O)NC(=S)Nc1ccccc1N1CCCC1,,"inconclusive: 35.5 µM [inhibitor, partial curve]"
Clc1cccc(CN2CCc3c([nH]c4ccccc34)C2)c1Cl,,"inconclusive: 25.1 µM [inhibitor, full curve]"
Cc1ccccc1N1C(=O)C2ON(c3ccccc3)C(c3ccco3)C2C1=O (centres undefined),,"inconclusive: 89.1 µM [inhibitor, single point]"
CCN=c1scc(-c2ccc3c(c2)NC(=O)CO3)n1N=C1CCCC1,,"inconclusive: 44.7 µM [inhibitor, partial curve]"
COc1cccc(C(=O)Nc2nc3nc(C)c(C)c(=O)n3[nH]2)c1,inactive: 18.7%,
CCn1c(C(=O)NCc2ccc(OC)cc2)cc2sc(Cl)cc21,inactive: 43.6%,
Nc1nonc1-c1nc2ccccc2n1CC(=O)N/N=C/c1ccc(-c2cccc(C(=O)O)c2)o1,,active: 50.1 µM
CCN(CC(=O)Nc1cccc(OC)c1)CC(=O)Nc1cccc2ccccc12,inactive: 36%,
COc1cc(Br)c(CN2C(=O)NC3(CCCCCC3)C2=O)cc1OC,inactive: 10.9%,
COc1ccc(/C(C)=N/Nc2nc3ccccc3nc2C)cc1,,"inconclusive: 25.1 µM [inhibitor, partial curve]"
COc1cccc(/C=N/NC(=O)c2cc(-c3cccn3C)n[nH]2)c1,,"inconclusive: 7.08 µM [inhibitor, full curve, poor fit]"
Cc1cccc(CNC(=O)CN2C(=O)C3CCCCN3c3ccc(C(=O)N4CCCC4)cc32)c1 (centres undefined),inactive: 22.1% [at 57 µM],
C/C=C/c1ccc(OCCCCN2CC(C)CC(C)C2)c(OC)c1 (centres undefined),,"inconclusive: 56.2 µM [inhibitor, partial curve, poor fit]"
O=C(Nc1ccccc1N1CCCCC1)c1cccc(Cl)c1,inactive: 128%,
CCOC(=O)c1ccc(S(=O)(=O)Nc2cc(S(=O)(=O)N3CCOCC3)ccc2O)cc1,,"inconclusive: 4.47 µM [inhibitor, full curve, poor fit]"
Cc1nc(-n2nc(C)c(Cc3ccc(Cl)cc3)c2C)sc1C(=O)N1CCCCC1C (centres undefined),inactive: 25.4%,
O=C(CSCc1ccccc1Cl)NCc1ccc(Cl)c(Cl)c1,inactive: 74.1%,
CCN(CC(=O)NCc1ccccc1Cl)CC(=O)Nc1c(F)cccc1F,,"inconclusive: 22.4 µM [inhibitor, single point]"
COc1ccccc1NC(=O)NCc1ccc(C)n1C,inactive: 6.87%,
CCOc1ccc(S(=O)(=O)N(C(=O)c2ccco2)c2cc3sc(=O)oc3c3ccccc23)cc1,,"inconclusive: 25.1 µM [inhibitor, partial curve, poor fit]"

SMILES,"activity change, negative = inhibition",Potency
O=C(O)c1ccc(N/N=C/c2cc3c(cc2[N+](=O)[O-])OCO3)cc1,,"inconclusive: 35.5 µM [inhibitor, partial curve]"
CNC(=O)CCCCCNS(=O)(=O)c1ccc(C)cc1,,"inconclusive: 3.16 µM [inhibitor, single point]"
O=S(=O)(Nc1ccc(-c2ccc(N3CCCCCC3)nn2)cc1)c1cccc(C(F)(F)F)c1,,"inconclusive: 5.62 µM [inhibitor, single point]"
Cc1cccc(CCNC(=O)CNS(=O)(=O)c2ccc3nc(C)sc3c2)c1,inactive: 34.9%,
CCC(=O)c1ccc(NC(C)=O)cc1O,inactive: 36.8%,
CCN1C(=O)/C(=C\C=C2/C=CC=CN2CC)SC1=S,,active: 39.8 µM
CC(C)C(=O)Nc1ccc(Oc2ccc3c(c2)C(=O)NC3=O)cc1,inactive: 22%,
Cc1sc(NC(=O)C2CCCC2)c(C#N)c1C,,"inconclusive: 22.4 µM [inhibitor, full curve]"
COC(=O)c1sc(NC(=O)c2ccc([N+](=O)[O-])o2)c(C#N)c1C,,"inconclusive: 17.8 µM [inhibitor, partial curve, poor fit]"
CN(C)c1ccc(NC(=O)CSc2nc3ccccc3c(=O)n2C2CCCCC2)cc1,,"inconclusive: 11.2 µM [inhibitor, partial curve, poor fit]"
COc1ccccc1CNC(=O)c1ccc2c(c1)nnn2C1CCCC1,inactive: 26%,
Cc1cc(Nc2cccc(C(=O)O)c2)n2ncnc2n1,inactive: 37.7%,
Cn1c(-c2ccccc2)cnc1SCC(=O)N1CCCc2ccccc21,,"inconclusive: 28.2 µM [inhibitor, single point]"
CC1CCCCC1NCC(=O)NCc1ccc(F)cc1 (centres undefined),,"inconclusive: 44.7 µM [inhibitor, partial curve]"
COCCNC(=O)C1CCN(Cc2cccc(OCc3ccccc3)c2)CC1,,"inconclusive: 50.1 µM [inhibitor, partial curve, poor fit]"
O=C(CCC(NC(=O)OCc1ccccc1)C(=O)OCC(=O)N1CCCCC1)OCC(=O)N1CCCCC1 (centres undefined),,"inconclusive: 89.1 µM [inhibitor, single point]"
COc1ccc(CNS(=O)(=O)CCNCc2ccco2)cc1,,"inconclusive: 39.8 µM [inhibitor, single point]"
O=C(COC(=O)/C=C/c1ccc(F)cc1)Nc1cccc(S(=O)(=O)N2CCCC2)c1,inactive: 29.4%,
COC(=O)c1ccccc1NC1c2ccccc2C(=O)N1c1cccnc1 (centres undefined),,"inconclusive: 89.1 µM [inhibitor, partial curve, poor fit]"
COc1c(O)ccc2c1CN1CCc3cc4c(cc3C1C2)OCO4 (centres undefined),,"inconclusive: 50.1 µM [inhibitor, partial curve, poor fit]"
C#CCCc1cscc1/C=[N+](\[O-])c1ccc(C(=O)OCC)cc1,,"inconclusive: 31.6 µM [inhibitor, partial curve]"
COC(=O)c1ccc(CSc2ccc3nnc(-c4cccc(F)c4)n3n2)o1,,"inconclusive: 89.1 µM [inhibitor, single point]"
COc1ccc(C2=NS(=O)(=O)N(C)C(C(=O)N3CCCCC3C)=C2)cc1 (centres undefined),inactive: 21.1%,
Cc1cc(F)ccc1NS(=O)(=O)c1c(C(=O)N2CCOCC2)c(C)n(C)c1C,inactive: 23.3%,
